Measured values from the RNAGym collection of RNA variant scans (doi:10.1073/pnas.2313332121).
Variants at the floor of the assay are shown more often than the library holds them.

B1: TPR 5TU (parent)
chain: GGAUCUUCUCGAUCUAACAAAAAAGACAAAUCUGCCACAAAGCUUGAGAGCAUCUUCGGAUGCAGAGGCGGCAGCCUUCGGUGGCGCGAUAGCGCCAACGUUCUCAACUAUGACACGCAAAACGCGUGCUCCGUUGAAUGGAGUUUAUCAUG

Variants of: B1
Assay: polymerase ribozyme fitness, log enrichment relative to wild type (log ratio); higher = more active; in vitro selection for triplet polymerase activity
Method in brief: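 Mutant libraries were PCR-built and transcribed for each subunit of a heterodimeric triplet polymerase ribozyme and selected for one round in triplicate at −7 °C, frozen, before gel excision of extended constructs and streptavidin-bead capture. Input and output libraries were Illumina-sequenced, keeping genotypes with ≥10 input reads and ≥1 read per output. Fitness is a logarithmic ratio of genotype to wild-type enrichment, in base 2, using inverse-variance-weighted replicate averages.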

Polymerase ribozyme fitness (log ratio), ≤ -4.2:
GGAUCUUCUCGAUCUAACAAAAAAGACAAAUCUGCCACAAAGCUCGAGAGCAUCUUCGGAAGCAGAGGCGGCAGCCUUCGGUGGCGCGAUCGCGCCAACGUUCUCAACUCUGACACGCAAAACGCGUGCUCCGUUGAAUGGAGUUUAUCAUG [U45C U61A A91C A110C]
GGAUCUUCUCGAUCUAACAAAAAAGACAAAUCUGCCACAAAGCUGGUGAGCAUCUUCGGAUGCUGGGGCGGCAGCCUUCGGUGGCGCUAUACCGCCCACGUUCUCAACUAUGACACGCAAAGCGCGUGCUCCGCUGAAUGGAGUUUAUCAUG [U45G A47U A64U A66G G88U G92C A97C A122G U134C]
GGAUCUUCUCGAUCUAACAAAAAAGACAAAUCUGCCACAAAGCUGGAGGGCAUCUUCGGAUGCAGAGGCGGCAGCCUUCGGUGGCGCGAUAGCGCCAGCGUUCUCAUCUAUGACACGCAAAACGCGUGCUCCGUUGAAUGGAGUUUAUCAUG [U45G A49G A98G A107U]
GGAUCUUCUCGAUCUAACAAAAAAGACAAAUCUGCCACAAAGCUGGAGAGUAUGUUCGGAUGCAGAGGCGGCAGCCUUCGGUGGCGCGAUAGCGACAAGGUUCUCAACUAUGACACGCAAAACGCGUGCUCCGUUGAAUGGAGUUUAUCAUU [U45G C51U C54G C95A C99G G152U]
GGAUCUUCUCGAUCUAACAAAAAAGACAAAUCUGCCACAAAGCUGGAGAGCAUAUUCGGAUGCAGGGGCGGCAGCGUUCGGUGGUGCGAUAGCGCCAACGUUCUCAACUAUGACACGCAAAACGCGUGCUCCGUUGGAUGGAGUUUCUCAUG [U45G C54A A66G C76G C85U A137G A147C]
GGAUCUUCUCGAUCUAACAAAAAAGACAAAUCUGCCACAAAGCUGGAGAGCAUUUUCGGAUGCAGAGGCGGCAGCCUUCGGUGGCGCGAUAGAGCCAACGUUCUCAACUAUGACACGCAAAACGCGUGCUCCUUUGAAUGGAGUUUAUCAUG [U45G C54U C93A G133U]
GGAUCUUCUCGAUCUAACAAAAAAGACAAAUCUGCCACAAAGCUGGAGAGCAUCUUCGGAUGCAGAGGCGGCAGCCUUCGGUGACGCGAUAGCGCCAACGUUCUCAACUAUGACACGCAAAACGCGUGCUCCUUUGAAUGGCGUUUAUCAUG [U45G G84A G133U A142C]
GGAUCUUCUCGAUCUAACAAAAAAGACAAAUCUGCCACAAAGCUGGAGAGCAUCCUCGGAUGCAGAGGCGGCAGCCUUCGGUGGCGCGAUAGCCCCAACGUUCUCAACUAUGACACGCAAAACGCGUGUUCCGUUGUAUGGAGUUUAUCAUG [U45G U55C G94C C129U A137U]
GGAUCUUCUCGAUCUAACAAAAAAGACAAAUCUGCCACAAAGCUUAUGAGCGUCUUCGGAUGCAGAGGCGGCAGCCUCCAGUGGCGAGAUAGCGCCAACGUUCUCAACUAUCACACGCAAAACGCGUGCUCCGUUGAAUGGAGUUUAUCAUG [G46A A47U A52G U78C G80A C87A G112C]
GGAUCUUCUCGAUCUAACAAAAAAGACAAAUCUGCCACAAAGCUUAAGGGCAUCGUCGGAUGCAGAGGCGGCAGCCUUCGGUGGCACGAUAGCGCCAACGUUCUCAACUAUGACACGCAAAAGGCGUGCUCCGUUGAAUAGAGUUUAUCAUG [G46A A49G U55G G86A C123G G140A]
GGAUCUUCUCGAUCUAACAAAAAAGACAAAUCUGCCACAAAGCUUAAGGGCAUCUUCGGAUGCAGAGGCGGCAGCCGUCGGUGGCGUGAUAGCGCCAACGUUCUCAACUAUGACACGCAAAACGCGUGCUCCGUUGAAUGGAGUUUAUCCUG [G46A A49G U77G C87U A150C]
GGAUCUUCUCGAUCUAACAAAAAAGACAAAUCUGCCACAAAGCUUAAGUGCAUCUUCGGAUGCAGAGGCGGCAGCCUUCGGUGGCGCGAUAGCGCGAACGUUCUCAACUUUGACACGCAAAACGCGUGCUCCGUUGAAUGGAGUUUAUCAUG [G46A A49U C96G A110U]
GGAUCUUCUCGAUCUAACAAAAAAGACAAAUCUGCCACAAAGCUUAAGAGCCUCAUCGGAUGCAGAGGCGGCAGCCUUCGGUGGCGCGAUAGCGCCAACGUUCUCAACUAUGACACGCAAAACGCGUGCUCCGUUGAAUGGAGUUUAUCAUG [G46A A52C U55A]
GGAUCUUCUCGAUCUAACAAAAAAGACAAAUCUGCCACAAAGCUUAAGAGCAUCUUCGGAUGCAGCGGCGGCAGCCUUCGGUGGCGCGAUAGCGCCAGCGUUCUCAACUAUGACACGCAAAACGCGUGCUCCGUUGAAUGGAGUUUAUCAUG [G46A A66C A98G]
GGAUCUUCUCGAUCUAACAAAAAAGACAAAUCUGCCACAAAGCUUAAGAGCAUCUUCGGAUGCAGUGGCGGCAGCCUUCGGUGGCGCGAUAGCGCCAACGUUCUCAACUAUGACACGGGAAACGCGUGCUCCGUUGAAUGGAGUUUAUCAUG [G46A A66U C118G A119G]
GGAUCUUCUCGAUCUAACAAAAAAGACAAAUCUGCCACAAAGCUUAAGAGCAUCUUCGGAUGCAGAGGCGGCGGCCUUCGGUGGCGUGAUAGUGCCAACGUUCUCAACUAUGACACGCAAAACGCGUGCUCCGUUGAAUGGAGUUUAUCAUG [G46A A73G C87U C93U]
GGAUCUUCUCGAUCUAACAAAAAAGACAAAUCUGCCACAAAGCUUAAGAGCAUCUUCGGAUGCAGAGGCGGCAGCCUUCGGUGGCGCGAUUGCACCAAAGUUCUUAACUAUGACACGCACAACGCGUGCUCCGUUGACUGUAGUUUAUCAUG [G46A A91U G94A C99A C105U A120C A138C G141U]
GGAUCUUCUCGAUCUAACAAAAAAGACAAAUCUGCCACAAAGCUUAAGAGCAUCUUCGGAUGCAGAGGCGGCAGCCUUCGGUGGCGCGAUAGCGCCAACGUUCUCAACUAUGACACGCAGAGCACGUGCUCCGUUGAAUGGAGUUUCUAAUG [G46A A120G A122G G124A A147C C149A]
GGAUCUUCUCGAUCUAACAAAAAAGACAAAUCUGCCACAAAGCUUAAGAGCAUAUUCGGAUGCAGAGGCGGCAGCGUUCGGUGGCGCGAUAGCGCCAAGGUUCUCAACUAUGACACGCAAAACGCGUGAUCCGUCGAGUGGAGUUUAUCAUG [G46A C54A C76G C99G C129A U135C A138G]
GGAUCUUCUCGAUCUAACAAAAAAGACAAAUCUGCCACAAAGCUUAAGAGCAUGUUCGGAUGCAGGGGCGGCAGCCUUCGGUGGCGCGAUAGCGUCAACGUUCUCAACUAUGACACGCAAAACGCGUGCUCCGUUGAAUGGUGUUUAUCAUG [G46A C54G A66G C95U A142U]
GGAUCUUCUCGAUCUAACAAAAAAGACAAAUCUGCCACAAAGCUUAAGAGCAUCUUCGGAUGCAGAGGCGGCAGAUUUCGGUGGCGCGAUAGCAGCAACGUUCUCAACUAUGACACGCAAAACGCGUGCUCCGUUGAAUGGAGUUUUUCAUG [G46A C75A C76U G94A C95G A147U]
GGAUCUUCUCGAUCUAACAAAAAAGACAAAUCUGCCACAAAGCUUAAGAGCAUCUUCGGAUGCAGAGGCGGCAGCAUUCGGUGGCGCGAUAACGCCAACGUUCUCAACUAUGACACGCAAAACGCAUGCUCCGUUGAAUGACGUUUAUCGUG [G46A C76A G92A G126A G141A A142C A150G]
GGAUCUUCUCGAUCUAACAAAAAAGACAAAUCUGCCACAAAGCUUAAGAGCAUCUUCGGAUGCAGAGGCGGCAGCCUUAGGUGGCGCGAUUGCGCCAACGUUCUGAACUAUGACACGCAAAACGCGUGCUCCUUUGAAUGAAAUUUAUCAUG [G46A C79A A91U C105G G133U G141A G143A]
GGAUCUUCUCGAUCUAACAAAAAAGACAAAUCUGCCACAAAGCUUAAGAGCAUCUUCGGAUGCAGAGGCGGCAGCCUUCGGUGGCGGGAUAGCGCCAACGUUCUCAACUAUGACACGCAAAACGCGUGCUCCGUUGAAUGGAGUUUAUCAUG [G46A C87G]
GGAUCUUCUCGAUCUAACAAAAAAGACAAAUCUGCCACAAAGCUUAAAAGCAUCUUCGGAUGCAGAGGCGGCAGCCUUCGGUGGCGCGAUGGCGCUAACGUUCUCAACUAUGACACGCAAAACGCGUGCUCCGUUGAAUGGAGUUUAUCAUG [G46A G48A A91G C96U]
GGAUCUUCUCGAUCUAACAAAAAAGACAAAUCUGCCACAAAGCUUAACAGCAUCUUCGGAUGCAGAGGCGGCAGCCUUCGGUGUCGCGAUAGCGCCAACGUUCUCAACUAUGACACGCAAAACGAGUGCUCCGUCGAAUGGAGUUUAUCAUG [G46A G48C G84U C125A U135C]
GGAUCUUCUCGAUCUAACAAAAAAGACAAAUCUGCCACAAAGCUUAAGAGCAUCUUCGGAUCCAGAGGCGGCAGCCUUCGGUGGUGCGAUAGUGCCAACGUUCUAAACUAUGGCACGCAAAACGCGCGCUCCGUUGAAUGGAGUUUAUCAUG [G46A G62C C85U C93U C105A A113G U127C]
GGAUCUUCUCGAUCUAACAAAAAAGACAAAUCUGCCACAAAGCUUAAGAGCAUCUUCGGAUGCAGAGACGGCAGCCUUCGGUGGCGAGAUAGCGCCAACGUUCUGAACUAUGACACGCAAAACGCGUACUCCGUUGAAUGCAGUUUAUUAUG [G46A G68A C87A C105G G128A G141C C149U]
GGAUCUUCUCGAUCUAACAAAAAAGACAAAUCUGCCACAAAGCUUAAGAGCAUCUUCGGAUGCAGAGACGGCAGCCUUCGGUGGCGCGAUAGGGCUAACGUUCUCAACUAUGACACGCAAAACGCGUGCUCCGUUGAAUGGAGUUUAUCAUG [G46A G68A C93G C96U]
GGAUCUUCUCGAUCUAACAAAAAAGACAAAUCUGCCACAAAGCUUAAGAGCAUCUUCGGAUGCAGAGGCGCCAGCCUUCGGUGGCGCGAUAUCGCCAACGUUCUCAACUAUGACACACAAAACGGGUGCUCCGUUGAAUGGAGUUUAUCAUG [G46A G71C G92U G117A C125G]
GGAUCUUCUCGAUCUAACAAAAAAGACAAAUCUGCCACAAAGCUUAAGAGCAUCUUCGGAUGCAGAGGCGGCAGCCUUCGGUGGCGCUAUAGCGCCAACGUUCUCAACUAUGACACGCAAAACGCGUGCGCCGUUGAAUGUAGUUUAUCAUG [G46A G88U U130G G141U]
GGAUCUUCUCGAUCUAACAAAAAAGACAAAUCUGCCACAAAGCUUAAGAGCAUCUUCGGAUGCAGAGGCGGCAGCCUUCGGUGGCGCGAUAGCGCCAACAUUCUGAACUAUGACACGCAAAACGCGUGCUCCCUUGAAUGGAGUUUAUCAUU [G46A G100A C105G G133C G152U]
GGAUCUUCUCGAUCUAACAAAAAAGACAAAUCUGCCACAAAGCUUAAGAGCAUCUUCGGAGGCAGAGGCGGCAGCCUUCGGUGGCGCGAUAGCGCCUACGUGUUCAACUGUGACACGCAACACGGGUGCUCCGUUGAAUGGAGUUUAUCAUG [G46A U61G A97U U102G C103U A110G A121C C125G]
GGAUCUUCUCGAUCUAACAAAAAAGACAAAUCUGCCACAAAGCUUAAGAGCAUCUUCGGAUGCAGAGGCGGCAGCCUUCGGAGGCGCGUUAGGGCCAACUUUCUCAACUAUGACACGCAAAACGCGUGCUCCGUUGAAUGGAGUUUAUCAUG [G46A U82A A89U C93G G100U]
GGAUCUUCUCGAUCUAACAAAAAAGACAAAUCUGCCACAAAGCUUAAGAGCAUCUUCGGAUGCAGAGGCGGCAGCCUUCGGCGGCGCGAUAACGCGAACGUUCUCAACUAUGACACGCAAAUCGUGUGCUCCGUUGAAUGGAGUUUAUCAUG [G46A U82C G92A C96G A122U C125U]
GGAUCUUCUCGAUCUAACAAAAAAGACAAAUCUGCCACAAAGCUUCCGAGCAUCUUUGGAUGCAGAGGCGGCAGCCUUCGGUGGCGCGAUAGCGCCAAGGUUCUCAACUAUGACACGCAAAACGCGUGCUACGUUGAAUGGAGUUUAUCAUG [G46C A47C C57U C99G C131A]
GGAUCUUCUCGAUCUAACAAAAAAGACAAAUCUGCCACAAAGCUUCUGAGCAUCAUCGGAUGCAGAGGCGGCAGCCUUCGGUGGAGCGAUAGCGCAAAGGUUCUCAACUAUGACACGCAAAACGCGUGCUCCGUUGAAUGGAAUUUAUCAUG [G46C A47U U55A C85A C96A C99G G143A]
GGAUCUUCUCGAUCUAACAAAAAAGACAAAUCUGCCACAAAGCUUCAGCGCAUCUUCGGAUGCAGAGGCGGCCGCCUUCGGUGGCGCGAUAGCGCGAAGGUUCUCAACUAUGACACGCAAAACUCGUGCUCCGUUGAAUGGAGUUUAUCAUG [G46C A49C A73C C96G C99G G124U]
